# The list shows a part of the results. At the low end of the ranking the order means little.
# Target: SIX1-Q177R homeodomain (UniProt Q15475)
# Assay: universal protein binding microarray
# Details: Universal all-10-mer PBM (8x60K, AMADID 030236), 300 nM GST-tagged protein, Alexa Fluor 488 anti-GST; buffer, salt, pH and temperature not stated; high values mean tight binding; most listed sequences are background and not binding sites; double strand, one strand shown
row,Sequence,binding signal [E-score]
1,CGTAAATC,-0.0319
2,AGCCTTGG,-0.0656
3,ACCGAGTA,0.124
4,TCCATAGA,-0.147
5,ATTGATCG,-0.0864
6,CGTATCGC,0.094
7,CACACAAA,0.0473
8,CGCCACGC,-0.125
9,CGTTATTA,-0.0247
10,AATCGGCA,-0.148
11,GCCAGAAA,-0.148
12,AAGCAACG,-0.0351
13,ACTCTCTC,0.0212
14,CGTAATTA,-0.138
15,TGCTTGAA,-0.046
16,GCGTTACC,0.143
17,ACAGGGAG,0.0597
18,CTCCTGCA,-0.0533
19,AAGTTGCA,0.0234
20,CACATGAC,-0.0544
21,CCGTTAAG,-0.0647
22,ACGAAAAG,-0.102
23,AAGGGTCG,0.188
24,ATTCCAAC,-0.113
25,CGCTGAGA,-0.0841

row,Sequence,binding signal [E-score]
1,TAACGGTA,-0.13
2,CAGTTGCG,-0.0873
3,AGAGGACA,0.148
4,GAAATGTA,-0.263
5,CCTGCAGC,-0.0407
6,CTTGCACC,0.166
7,ACTATAAT,0.0185
8,AGTGACCA,-0.0304
9,CTGGAGTC,0.184
10,ATCTGTAG,-0.0884
11,ACGGGGTC,0.214
12,CACGACAA,0.0685
13,AGTACAGC,-0.232
14,AGTTATTA,-0.00447
15,CAATCTGA,-0.224
16,CATTATTC,-0.0129
17,CTCATGAC,0.113
18,CCTACACC,0.482
19,CCTGTTCC,-0.0843
20,AAAGAACT,-0.245
21,GGCATATA,0.0529
22,ATACTCCA,0.189
23,GCAGGCGC,-0.218
24,ACCACTCG,0.122
25,GACTAGTA,-0.166

row,Sequence,binding signal [E-score]
1,CAGCAACA,-0.0392
2,AACGACCC,0.0499
3,ACTGAAGG,-0.00662
4,AGCGGACA,0.0943
5,AATACCAA,-0.0576
6,TAAACTAA,-0.015
7,GTAATACA,0.105
8,ATCGTATG,-0.165
9,GCCACACA,0.147
10,AAGCACTT,-0.141
11,CAGCTCAC,-0.238
12,GCTCATAA,-0.267
13,CTTGTCGA,-0.0662
14,CACGCTGG,0.159
15,ACCGGGGA,0.149
16,CCGACTAA,0.125
17,GTCCCTCA,-0.0613
18,GAAGAAGA,0.0352
19,AAGAGATC,-0.0461
20,CCACCATA,-0.0846
21,ACCGTTGA,0.0737
22,CGTGGGGA,0.0815
23,GGATGGTA,0.133
24,ACATGGTG,0.33
25,TCCTCAGA,-0.139

row,Sequence,binding signal [E-score]
1,GGCGGTCA,-0.176
2,GTATCTCA,0.158
3,AGGCTGTA,-0.038
4,CACATATG,0.145
5,ACCTATTA,-0.0416
6,AGGGTCAT,0.0915
7,ATTGCTGA,-0.106
8,CATTTTCG,-0.216
9,CTGGAGCA,-0.035
10,ATGGGGCA,-0.0582
11,AACCACTG,-0.166
12,GTTGCACA,0.13
13,AGACTGGC,-0.125
14,TAACGATA,-0.0377
15,GAAGTCTA,-0.0831
16,CAGAGTGC,0.0429
17,GACGGGGC,-0.0461
18,CTTAGGGC,-0.0327
19,AGTGTGCG,0.132
20,CGTTGGCA,-0.11
21,CCAACCAG,-0.148
22,GAGGTTAC,0.0402
23,TCGCTTCA,-0.179
24,AGACTGAC,-0.158
25,CAGGCCGC,-0.24

row,Sequence,binding signal [E-score]
1,AGCAATCA,-0.257
2,GAACTCGA,-0.00737
3,AGTTTTCA,-0.327
4,ATCCCTTC,-0.0326
5,CGATGGCC,-0.338
6,ACTTTACG,-0.0217
7,GCTGACCC,0.045
8,GAACATGA,-0.0589
9,ATCGATAC,0.219
10,ACTTGCAA,-0.21
11,CGGTGCTC,0.218
12,CTAAGGTC,-0.0594
13,TAGTGAAA,-0.0297
14,AATAGACT,-0.294
15,GTAGCGGA,-0.0703
16,AGCCAGCA,-0.0825
17,ATGTATTA,-0.00617
18,TACCGATA,-0.00915
19,AAGCCGCC,-0.166
20,CGCAGCAC,0.0574
21,CTGGTGGC,-0.106
22,CCAGTACA,0.242
23,ACGAGACT,-0.196
24,GAACTGTA,-0.246
25,AAGTATTA,-0.06

row,Sequence,binding signal [E-score]
1,ATGGTGTC,0.486
2,AGCTTACT,-0.113
3,CTATGTAC,0.0488
4,AATTCGCG,0.0887
5,CCTTCGAG,-0.159
6,CCGTATAC,0.0376
7,ACGGCAAA,-0.00572
8,ACAAGTGC,-0.016
9,AGTATCAC,0.145
10,CCATTTAA,-0.155
11,ATCTCTAG,-0.18
12,GAACTGCA,-0.0936
13,AACGGTAC,-0.178
14,AATGGAAC,-0.0894
15,CCTCGTGC,0.0348
16,AATTCCAC,-0.0712
17,ATCAAAAG,-0.145
18,CGCCTAGA,-0.118
19,ACTTCACG,-0.0262
20,GGGTGTAC,0.483
21,CCGTGATA,-0.0805
22,CTAAATTA,-0.281
23,ACGCCTGC,0.0131
24,GTCACCAC,-0.0577
25,AGAGGCCG,-0.0544

row,Sequence,binding signal [E-score]
1,GAGCGACA,0.185
2,ACCAGTGA,0.189
3,CCCCCCAA,0.146
4,AGTTGATG,-0.075
5,CTCGGCTA,-0.0973
6,ATGAAAGA,-0.128
7,AGAGAACC,-0.0421
8,AATGTTAA,-0.0403
9,AGGTTACG,-0.248
10,ACCAAGTA,0.149
11,CCCCTAGA,0.0523
12,ATCGCTAC,0.0339
13,CCCTTGCA,-0.1
14,CCTTTAAA,-0.122
15,GCTTTGCA,-0.0747
16,CACGTTAG,0.102
17,ATTCGAAA,-0.286
18,CCTGGTAA,0.0114
19,CGCGAACC,0.0874
20,GCGATTGA,-0.13
21,CCTGATTA,-0.0132
22,AAATATCC,-0.00366

# — publication PMC10668032
